Data reported in article PMC10904452.
Results are given in words; binding and its absence hold for the method and conditions named. In cells and extracts the contact can be indirect. Some entries that bind do so weakly or less than the wild type. Sequences can lack the tags named with a protein.

B1: EGFP-tagged SPEM2 (SPEM2-EGFP fusion protein) (protein, UniProt Q8C5U4 1-503)
chain: MENQLWQNTLRCCEQYQESPQDAENILFLLLGLIILVNISINVATAMWQGLQNAIDKMIFWMNQKTEVVQVTECPPKEPQPANVQDVHIHCILDPVQVKMAQPTQCSSSSSHYFCKRSNDRRSRRRYGYQQGNLQIHQSSQQQGCLSHQQRLRNRPLSRGYPPFRKQPQGHKMSQMRPMPFFDMEDRDSLPEGHSCPHAKQPRRGWGSLCKPVRLASNVGLWGRQGGILASLPLPSLYLSPELRRLPKRVEAKSELRLQGFGPHYSQSRIWGTVEAEQWASSPPPPRRLLPNPSWVTVGYSSFPSGGHIPYDARDQWRRGTEGCEPPPAFVPRNPREVQGYRDHNSQAHRQNFSSHTHSQPNHSPPQSMGHVGYSSRESHEVRRRAPDWIEVFPSRHPLTTSTSLTALGEASYQRAPPASSGLMIPHSSQRLAEVQISDPTPPPTTFVPLSRNPGGNATYQVYDSLELKRQVQENRGRASSLPPPSTSASRPSLHRSRTGKLN
B2: FLAG-tagged SPEM2 (SPEM2-FLAG) (protein, UniProt Q8C5U4 1-503)
chain: B1 chain

Experiments:
Experiment in all cases: co-IP; HEK293T cells co-transfected, harvested 48 h after transfection; NETN lysis buffer (20 mM Tris-HCl pH 7.5, 100 mM NaCl, 6 mM EDTA, 0.5% NP-40); 1 mg protein with 50 ul anti-HA, anti-GFP, anti-FLAG or anti-Myc mAb magnetic beads overnight at 4 C; five washes; western blotting; both directions of precipitation
[1] = target: T1, FLAG-tagged ZPBP (ZPBP-FLAG) (mouse) (UniProt Q62522)
T1 sequence: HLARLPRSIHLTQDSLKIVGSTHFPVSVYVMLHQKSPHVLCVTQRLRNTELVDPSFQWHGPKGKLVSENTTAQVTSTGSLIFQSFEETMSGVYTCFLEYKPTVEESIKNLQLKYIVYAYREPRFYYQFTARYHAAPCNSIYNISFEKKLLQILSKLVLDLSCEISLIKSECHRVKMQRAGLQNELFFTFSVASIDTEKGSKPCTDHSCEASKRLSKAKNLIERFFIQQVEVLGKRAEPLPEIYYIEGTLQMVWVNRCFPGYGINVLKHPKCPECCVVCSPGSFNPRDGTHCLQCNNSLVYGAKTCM

[2] = target: T2, HA-tagged PRSS54 (PRSS54-HA) (mouse) (UniProt Q7M756)
T2 sequence: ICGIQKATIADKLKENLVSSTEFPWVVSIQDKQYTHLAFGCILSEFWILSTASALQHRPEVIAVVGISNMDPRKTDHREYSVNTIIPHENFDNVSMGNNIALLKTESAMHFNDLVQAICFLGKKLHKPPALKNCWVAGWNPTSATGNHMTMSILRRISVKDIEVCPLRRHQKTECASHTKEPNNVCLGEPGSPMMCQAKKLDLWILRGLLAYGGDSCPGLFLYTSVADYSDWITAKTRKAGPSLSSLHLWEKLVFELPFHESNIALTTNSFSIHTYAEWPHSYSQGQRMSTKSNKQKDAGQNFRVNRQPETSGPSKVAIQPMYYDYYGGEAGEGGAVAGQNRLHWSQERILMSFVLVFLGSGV

[3] = target: T3, PDILT (from pCAG-Pdilt-FLAG) (mouse) (UniProt Q9DAN1)
T3 sequence: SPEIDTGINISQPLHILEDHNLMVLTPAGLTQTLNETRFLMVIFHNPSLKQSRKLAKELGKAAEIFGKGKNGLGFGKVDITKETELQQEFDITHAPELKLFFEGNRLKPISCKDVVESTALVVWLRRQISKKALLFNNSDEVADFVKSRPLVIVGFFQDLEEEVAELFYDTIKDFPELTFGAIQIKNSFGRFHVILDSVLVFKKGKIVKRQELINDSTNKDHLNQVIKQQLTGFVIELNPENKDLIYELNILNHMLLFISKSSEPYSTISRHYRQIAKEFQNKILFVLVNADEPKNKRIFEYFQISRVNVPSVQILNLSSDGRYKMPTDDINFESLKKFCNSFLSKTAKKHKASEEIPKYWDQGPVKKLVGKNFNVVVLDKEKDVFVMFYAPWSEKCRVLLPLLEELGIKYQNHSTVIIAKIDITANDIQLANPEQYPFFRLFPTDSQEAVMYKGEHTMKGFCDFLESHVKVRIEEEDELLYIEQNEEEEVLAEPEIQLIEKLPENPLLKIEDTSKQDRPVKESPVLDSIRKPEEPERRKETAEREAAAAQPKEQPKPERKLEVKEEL

[4] = target: T4, CLGN (from pCAG-Clgn-FLAG) (mouse) (UniProt P52194)
T4 sequence: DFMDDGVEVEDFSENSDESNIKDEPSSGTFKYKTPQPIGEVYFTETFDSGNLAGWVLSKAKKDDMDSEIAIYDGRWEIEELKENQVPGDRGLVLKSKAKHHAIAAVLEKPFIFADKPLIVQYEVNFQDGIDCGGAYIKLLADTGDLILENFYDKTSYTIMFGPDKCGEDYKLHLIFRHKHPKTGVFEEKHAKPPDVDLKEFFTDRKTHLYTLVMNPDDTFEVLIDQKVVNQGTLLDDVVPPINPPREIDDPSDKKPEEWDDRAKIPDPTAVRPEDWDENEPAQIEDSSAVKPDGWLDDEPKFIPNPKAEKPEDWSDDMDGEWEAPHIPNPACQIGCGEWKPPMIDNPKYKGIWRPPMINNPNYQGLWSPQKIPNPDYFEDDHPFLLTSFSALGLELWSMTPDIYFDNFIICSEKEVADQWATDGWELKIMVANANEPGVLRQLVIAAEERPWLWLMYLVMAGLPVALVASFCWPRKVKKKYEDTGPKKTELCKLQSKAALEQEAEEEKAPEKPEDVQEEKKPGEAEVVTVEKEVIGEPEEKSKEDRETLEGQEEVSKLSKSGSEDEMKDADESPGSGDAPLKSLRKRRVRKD

[5] = target: T5, Myc-tagged ADAM3 (ADAM3-Myc) (mouse) (UniProt F8VQ03)
T5 sequence: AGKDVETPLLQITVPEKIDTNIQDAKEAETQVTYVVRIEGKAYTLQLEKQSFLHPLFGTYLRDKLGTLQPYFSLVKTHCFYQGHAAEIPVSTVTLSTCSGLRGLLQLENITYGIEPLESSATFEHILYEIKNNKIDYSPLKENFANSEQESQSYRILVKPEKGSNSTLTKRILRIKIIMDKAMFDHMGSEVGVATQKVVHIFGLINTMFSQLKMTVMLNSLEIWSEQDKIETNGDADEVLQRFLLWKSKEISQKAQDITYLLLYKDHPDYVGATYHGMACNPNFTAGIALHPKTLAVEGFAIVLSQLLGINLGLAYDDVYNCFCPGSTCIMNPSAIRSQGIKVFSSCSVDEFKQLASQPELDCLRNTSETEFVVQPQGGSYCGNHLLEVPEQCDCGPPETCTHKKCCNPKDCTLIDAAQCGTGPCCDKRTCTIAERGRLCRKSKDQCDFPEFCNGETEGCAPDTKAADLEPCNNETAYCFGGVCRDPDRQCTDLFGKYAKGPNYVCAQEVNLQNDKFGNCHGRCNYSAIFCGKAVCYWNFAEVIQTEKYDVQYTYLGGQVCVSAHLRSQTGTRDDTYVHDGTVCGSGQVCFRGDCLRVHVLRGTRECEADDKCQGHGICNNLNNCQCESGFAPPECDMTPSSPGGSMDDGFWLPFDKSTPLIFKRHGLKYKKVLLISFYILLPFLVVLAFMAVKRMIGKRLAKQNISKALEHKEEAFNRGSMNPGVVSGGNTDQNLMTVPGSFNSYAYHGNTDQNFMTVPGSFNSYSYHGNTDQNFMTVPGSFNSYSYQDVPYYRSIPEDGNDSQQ

[6] = target: T6, EGFP-tagged PRSS55 (PRSS55-EGFP) (mouse) (UniProt Q14BX2)
T6 sequence: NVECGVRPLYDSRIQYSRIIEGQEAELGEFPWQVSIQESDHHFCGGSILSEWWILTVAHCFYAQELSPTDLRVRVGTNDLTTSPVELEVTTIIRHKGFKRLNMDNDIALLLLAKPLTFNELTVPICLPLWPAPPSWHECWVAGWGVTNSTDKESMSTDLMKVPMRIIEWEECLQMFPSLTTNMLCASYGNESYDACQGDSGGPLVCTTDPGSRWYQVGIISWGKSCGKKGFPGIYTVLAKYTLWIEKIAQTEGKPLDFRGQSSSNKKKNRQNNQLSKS

Row | Binder | binding [1] | binding [2] | binding [3] | binding [4] | binding [5] | binding [6]
1 | B1 | binds | binds | no binding | no binding | binds | 
2 | B2 |  |  |  |  |  | binds
